Measurements: PubChem BioAssay AID1347073 (National Center for Advancing Translational Sciences (NCATS), 2019)
About 200 (0.44%) of roughly 45,000 compounds were called active. Not shown: some 7% with an inconclusive outcome. Calls follow the shape of the dose curve; as a rule, active = well fitted activation curve with a large enough effect; inconclusive = small, poorly fitted or top-dose-only effect; inactive = no such curve, though single readings can be large or run the other way. This is one part of the list.

Test: qHTS of TDP-43 Inhibitors: NCGC Sytravon Library Screen; also: 0% is about no effect; nearly all actives have a fitted effect of over 55% in size
Conditions: yeast TDP-43 toxicity rescue, BacTiter-Glo growth, 24 h; series mostly up to 46.1 µM; growth rescue (activation): at the top concentration
Procedure, shortened: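 TDP-43-expressing yeast, pregrown in raffinose, seeded at OD600 0.02 in galactose medium with compound for 24 hr at 30 deg C. Growth read by BacTiter-Glo luminescence, so rescue of toxicity appears as activation.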

| Structure (SMILES) | growth rescue (activation) |
| --- | --- |
| COc1ccc(-n2nc(C(=O)NCC(=O)N3CCOCC3)c3ccccc3c2=O)cc1Cl | inactive: 12.3% |
| CCOC(=O)N1CCN(C(=O)CCn2c(=O)[nH]c3ccsc3c2=O)CC1 | inactive: 8% |
| COc1ccc(N(C(=O)C2CCCCC2)S(=O)(=O)c2cccc3cccnc23)cc1 | inactive: -6.83% |
| Nc1nc2ccc(NC(=O)c3ccco3)cc2s1 | inactive: 8.7% |
| O=c1c2c3n(c(=O)nc2[nH]n1-c1ccccc1)CCCCC3 | inactive: -12.9% |
| O=C(c1ccc(F)cc1)N(C(=O)c1ccc(F)cc1)c1ncccn1 | inactive: 17% |
| CCCCNC(=O)Cn1cnc2sc(C)c(S(=O)(=O)N3CCN(c4ncccn4)CC3)c2c1=O | inactive: 5.7% |
| CCOC(=O)N1CCN(C(=O)Cn2ncn3nc(-c4cccs4)cc3c2=O)CC1 | inactive: -36.5% |
| CCOC(=O)C1=C(COC(=O)COc2ccccc2C=O)NC(=O)NC1C (centres undefined) | inactive: 12.9% |
| O=c1sc2ccccc2n1Cc1ccccc1 | inactive: 31.8% |
| CN(c1ccccc1)S(=O)(=O)c1cccc(NC(=O)c2cc(=O)c3ccccc3o2)c1 | inactive: 2.76% |
| COc1ccc(C2C3=C(CC(C)(C)CC3=O)Oc3ncn4nc(-c5cccnc5)nc4c32)cc1 (centres undefined) | inactive: 24.6% |
| CC(C)(C)Nc1nc(N)nc(Cl)n1 | inactive: -3.99% |
| COc1cccc(O)c1CN1CCCC(C(=O)c2cccc(C(F)(F)F)c2)C1 (centres undefined) | inactive: 2.48% |
| COc1cc(CNCCO)cc(Cl)c1OCc1ccc(Cl)cc1Cl | inactive: -20.5% |
| O=C(NCc1ccccc1)C(c1ccc(F)cc1)N(C(=O)c1csnn1)c1ccccc1 (centres undefined) | inactive: -7.63% |
| COc1cc(C2c3c([nH]c(=O)[nH]c3=O)Nc3ccc4ccccc4c32)ccc1O (centres undefined) | inactive: -0.486% |
| CCCC1Cc2[nH]c(=O)c(C#N)cc2CO1 (centres undefined) | inactive: 8.32% |
| COc1ccc(C)cc1N(CC(=O)Nc1cccnc1)S(=O)(=O)c1ccc(C)cc1 | inactive: 4.48% |
| CC1=NOC(=O)/C1=C/c1ccc(O)c(Cl)c1 | inactive: -11.2% |
| CC(OC(=O)c1ccccc1CCc1ccccc1)C(N)=O (centres undefined) | inactive: -1.07% |
| CC1(C)Cc2noc(N)c2C(C)(C)N1OC(=O)c1ccco1 | inactive: 14.2% |

| Structure (SMILES) | growth rescue (activation) |
| --- | --- |
| CC(C)c1nnc(NC(=O)CCS(=O)(=O)c2ccccc2)s1 | inactive: 13.2% |
| O=C(Nc1ccc(F)cc1)Nc1nnc(-c2ccco2)s1 | inactive: -2.85% |
| CN(C)c1nc(Nc2ccc(Cl)c(Cl)c2)nc(N(C)C)n1 | inactive: 5.39% |
| Nc1nc(-c2ccccc2)c(N=Nc2cccc3ccccc23)s1 | inactive: -7.27% |
| COc1ccccc1CNC(=O)C1CCCN(S(=O)(=O)c2cccs2)C1 (centres undefined) | inactive: 14.5% |
| CCOCCn1c(CN2CCc3ccccc3C2)nc2c1c(=O)n(C)c(=O)n2C | inactive: -2.33% |
| COc1ccc(CCNC(=O)COc2ccccc2[N+](=O)[O-])cc1OC | inactive: 4.07% |
| Cn1cccc1/C=C1\SC(=S)N(NC(=O)c2ccccc2O)C1=O | inactive: 1.23% |
| CCN(CCC#N)c1ccc(/C=N/Nc2nc(C)cc(=O)[nH]2)c(C)c1 | inactive: 17.8% |
| CC(=O)Nc1ccc(S(=O)(=O)Oc2ccccc2N2C(=O)C3C4CCC(C4)C3C2=O)cc1 (centres undefined) | inactive: 12% |
| Cc1ccc(C)c(OCC(=O)NC(Cc2c[nH]c3ccccc23)C(=O)O)c1 (centres undefined) | inactive: -3.07% |
| Cc1cccc(C(=O)OCC(=O)Nc2ccc(F)cc2)c1 | inactive: -1.28% |
| Cc1onc(-c2ccccc2)c1C(=O)Nc1nncs1 | inactive: -11% |
| CC(=O)c1c(C)[nH]c(C(=O)Nc2ccc(Cl)cc2)c1C | inactive: -6.02% |
| Cc1cccc(C)c1NC(=O)COC(=O)c1ccccc1[N+](=O)[O-] | inactive: 13.4% |
| O=C(CCCOc1ccc(Cl)cc1Cl)NCc1ccccn1 | inactive: -9.15% |
| Cc1ccc(S(=O)(=O)N2CCN(C(=O)CSc3ccc(F)cc3)CC2)cc1 | inactive: 4% |
| O=C(CNC(=O)OCc1ccccc1)NC1CCCCNC1=O (centres undefined) | inactive: -14.4% |
| Cc1ccc(NC(=O)C(C)OC(=O)CSc2ccccc2)cc1 (centres undefined) | inactive: -24.2% |
| CCCC(=O)N1c2ccccc2C(N(C(C)=O)c2ccccc2)CC1C (centres undefined) | inactive: -11.9% |
| CCn1c2ccccc2c2cc(CN3CCN(Cc4ccccc4F)CC3)ccc21 | inactive: 8.27% |
| COc1cc(CC(=O)Nc2nc(-c3ccc(F)c(F)c3)cs2)cc(OC)c1OC | inactive: 9.61% |

| Structure (SMILES) | growth rescue (activation) |
| --- | --- |
| O=C(Nc1ccc(Cl)cn1)c1cccc(S(=O)(=O)N2CCCCC2)c1 | inactive: 2.84% |
| O=C(NCc1ccccn1)Nc1ccc(Br)cc1Cl | inactive: 9.51% |
| COCCn1c(-c2ccccc2Cl)nc2c(c(=O)c3ccccc3n2C)c1=O | inactive: 2.61% |
| Cc1ccc(-c2cc3ccccc3nc2N2CCOCC2)cc1 | inactive: -14.3% |
| CCCCc1n[nH]c2c1/C(=N/O)CC(c1ccccc1)C2 (centres undefined) | inactive: 14.6% |
| CC1(C(=O)Nc2ccc3[nH]ncc3c2)CCN1C(=O)C1(c2ccccc2)CC1 (centres undefined) | inactive: 3% |
| CCCS(=O)(=O)NC(=O)C1(C)CCN(C(=O)c2ccc(C(=O)OC)cc2)C1 (centres undefined) | inactive: 5.64% |
| CN(C)C=NC(=O)c1cn(-c2ccc(F)cc2)c(=O)c2ccccc12 | inactive: -6.48% |
| CCOC(=O)C1CCCN(C(=O)CCn2nnnc2CN2CCOCC2)C1 (centres undefined) | inactive: -12% |
| CCC(=O)N1CCc2cc(Br)cc(S(=O)(=O)N3CCC(C(=O)NCCCOC(C)C)CC3)c21 | inactive: -31% |
| CC(C)OC(=O)CC1C(=O)NCCN1C(=S)NC(=O)c1cccs1 (centres undefined) | inactive: 4.12% |
| Cc1nc(NC(=O)c2ccccc2)sc1Cc1ccc2c(c1)OCO2 | inactive: 19.9% |
| O=C(Nc1ccccc1C(=O)NC(Cc1ccc(O)cc1)C(=O)O)c1ccccc1 (centres undefined) | inactive: -8.99% |
| CCOC(=O)C(=O)NC(C)c1ccccc1 (centres undefined) | inactive: -3.87% |
| Cc1ccc(S(=O)(=O)N2CCOCC2)cc1NC(=O)COC(=O)CCC(=O)c1ccc(F)cc1 | inactive: 34.6% |
| COc1ccccc1CNC(=O)c1nccnc1CO | inactive: 3.1% |
| Cc1ccc(S(=O)(=O)c2cnc(-c3ccccc3)nc2N2CCCCC2)cc1 | inactive: 4.98% |
| O=C(Nc1nnc(COc2ccccc2F)s1)Nc1ccccc1F | inactive: 7.53% |
| O=S(=O)(NCC1CCCO1)c1ccccc1F (centres undefined) | inactive: 5.98% |
| O=[N+]([O-])c1ccc(N2CCNCC2)cc1Sc1nc2ccccc2[nH]1 | inactive: -26.5% |
| COC(=O)c1ccc(C)c(NC(=O)C(CCSC)NC(=O)c2cc(OC)c(OC)c(OC)c2)c1 (centres undefined) | inactive: 10% |
| CSc1ncc(Cl)c(C(=O)Nc2ccc(NC(C)=O)cc2)n1 | inactive: -5.92% |

| Structure (SMILES) | growth rescue (activation) |
| --- | --- |
| O=C(COC(=O)COc1ccccc1F)Nc1cccc(S(=O)(=O)N2CCCCC2)c1 | inactive: 7.43% |
| O=C(Nc1ccc(F)cc1)Nc1ccc(N2CCCC2)c(S(=O)(=O)Nc2ccccc2Cl)c1 | inactive: 8.63% |
| COc1ccccc1N(C)S(=O)(=O)c1ccc(C(=O)OCC(=O)c2c[nH]c3ccccc23)cc1 | inactive: 15.7% |
| N#Cc1ccccc1S(=O)(=O)N1CCN(C(=O)Cc2n[nH]c(=O)c3ccccc23)CC1 | inactive: 21.3% |
| CCOc1ccccc1N1CC(C(=O)NC2CCCCCC2)CC1=O (centres undefined) | inactive: -10.7% |
| CCc1ccccc1NC(=O)c1ccc(CN2CCC(Cc3ccccc3)CC2)cc1 | inactive: 4.31% |
| CCOC(=O)c1cc2c(C)[nH]c(C)c2cc(C(=O)OCC)c1=O | inactive: -14.9% |
| CCOc1ccccc1NC(=S)N(Cc1cc2ccc(C)cc2[nH]c1=O)CC1CCCN1CC (centres undefined) | inactive: 7.1% |
| COc1ccccc1N(CC(=O)NCCSCc1ccccc1)S(=O)(=O)c1ccc(C)cc1 | inactive: 5.57% |
| Cc1cccc(-n2c(N)cc(=O)nc2SCC(=O)Nc2nnc(C)s2)c1 | inactive: 27.1% |
| Cc1cc(C)cc(OC(=O)C23CCC(C)(C(=O)O2)C3(C)C)c1 (centres undefined) | inactive: -6.39% |
| COCCCNC(=O)[C@H](CSCc1ccccc1)N1Cc2ccccc2C1=O | inactive: 22.5% |
| COc1ccc(C(=O)Cn2nnc(-c3ccccc3NC(=O)c3ccco3)n2)cc1 | inactive: 28.5% |
| Nc1nc(NCCc2ccccc2)nc(NCCO)c1[N+](=O)[O-] | inactive: 6.03% |
| Cc1cccc[n+]1CC(=O)c1ccc([N+](=O)[O-])cc1 | inactive: 15.4% |
| Cc1cc(C)cc(OCC(=O)NCCc2nc3ccccc3[nH]2)c1 | inactive: 13.3% |
| CC(=O)Nc1cccc(NC(=O)c2ccc(COc3ccccc3)cc2)c1 | inactive: 28.9% |
| COc1cc(/C=C/C(=O)O)cc(S(=O)(=O)N2CCc3ccccc32)c1OC | inactive: 13% |
| CN(Cc1ccccc1)S(=O)(=O)c1ccc2c(c1)NC(=O)CC(=O)N2 | inactive: 18.1% |
| CCOC(=O)C1(C)CCCCN1C(=O)c1ccco1 (centres undefined) | inactive: 14.7% |
| CCC(=O)Nc1cccc(NC(=O)c2ccccc2Br)c1 | inactive: 13% |
| Cc1ccc(CSc2nnc(SCC(=O)N/N=C/c3ccc(C(=O)O)cc3)s2)cc1 | inactive: -1.16% |

| Structure (SMILES) | growth rescue (activation) |
| --- | --- |
| Cc1ccccc1C(=O)Nc1ccccc1NC(=O)c1ccccc1C | inactive: -1.86% |
| COc1ccc2c(c1)CC/C(=C/c1cc(OC)c(OC)c(OC)c1)C2=O | inactive: -3.48% |
| Cc1ccc(-c2cc(C(F)(F)F)n3nc(C(=O)N4CCN5CCCC5C4)cc3n2)cc1 (centres undefined) | inactive: -17.6% |
| CC1CCC2(CC1)NC(=O)N(CC(=O)Nc1cc(S(=O)(=O)N3CCCC3)ccc1Cl)C2=O (centres undefined) | inactive: -7.56% |
| CCS(=O)(=O)CCSc1nc2ccccc2s1 | inactive: 13.3% |
| CC1CN(C2=NC(=O)/C(=C/c3ccncc3)S2)CC(C)O1 (centres undefined) | inactive: -2.97% |
| CCCNC(=S)Nc1cccc(C(F)(F)F)c1 | inactive: -18.3% |
| CCc1cccc2c1NC1(CCCC1)CC2C (centres undefined) | inactive: -11.4% |
| Cc1ccc(Cl)cc1NC(=O)C1CCCCC1C(=O)O (centres undefined) | inactive: 4.8% |
| COc1ccc(-c2cc(C(=O)NC3CCCC3)no2)cc1 | inactive: 29.7% |
| CC1=NN(C(=O)COc2ccccc2)C(O)(c2ccccc2)C1 (centres undefined) | inactive: 24.5% |
| Cc1cccc(C)c1NC(=O)NN=C1CCCCC1 | inactive: 6.66% |
| COc1ccc(OCCSc2nc(N)cc(=O)[nH]2)cc1 | inactive: -12.7% |
| CCC(=O)N1CCN(c2cc3c(cc2F)c(=O)c(C(=O)O)cn3CC)CC1 | inactive: -7.42% |
| Cc1n[nH]c(=S)n1-c1ccccc1 | inactive: -17.5% |
| COc1cc(/C=N/Nc2cccc(C)c2)ccc1OC(=O)c1cccs1 | inactive: 9.3% |
| O=S(=O)(c1cnc(Cl)c(Cl)c1)N1CCN(c2ncccn2)CC1 | inactive: 8.62% |
| CC1(C(=O)Nc2ccc3c(c2)OCO3)CCN1C(=O)Cc1cccs1 (centres undefined) | inactive: -8.49% |
| S=c1[nH]nc(C2CCCCC2)n1/N=C/C(Cl)=C\c1ccccc1 | inactive: 17.5% |
| CC1=CN2C(=N)/C(=C/c3ccc(Sc4ccc(Cl)cc4)o3)C(=O)N=C2S1 | inactive: 7.44% |
| COc1ccc(Cl)cc1C(=O)NNC(=O)c1nc2nc(C)cc(C)n2n1 | inactive: 7.03% |
